Data published in US9890133B2 (priority 2011, dated 2018).

Tests used:
[1] = tested on: Coxsackie B1; test: organism not typed; settings: read-out: Coxsackie B1 EC50
[2] = tested on: Coxsackie B3; test: microbe, parasite or virus in culture; settings: Enterovirus B, B3, read-out: Coxsackie B3 EC50
[3] = tested on: Rhinovirus; test: microbe, parasite or virus in culture; format: cell-based; settings: Enterovirus
[4] = HRV14, read-out: Rhino HRV14 EC50
[5] = HRV71, read-out: Rhino HRV71 EC50
[6] = HRV21, read-out: Rhino HRV21 EC50

Compound | EC50 [1] | EC50 [2] | EC50 [3, 4] | EC50 [3, 5] | EC50 [3, 6]
CC(C)c1ccc2c(c1)OC1(O)c3cccc(N)c3C(=O)C21NC(=O)c1cc2ccccc2n1C (centres unmarked) [Example 268, N-(1-Amino-4b-hydroxy-7-isopropyl-10-oxo-9b,10-dihydro-4bH-indeno[1,2-b]benzofuran-9b-yl)-1-methyl-1H-indole-2-carboxamide] | < 0.01 µg/mL | < 0.01 µg/mL | < 0.01 µg/mL | < 1 µg/mL | –
CC(C)c1ccc2c(c1)OC1(O)c3cccc(N)c3C(=O)C21NC(=O)c1sc2cc(F)ccc2c1Cl (centres unmarked) [Example 269, N-(1-Amino-4b-hydroxy-7-isopropyl-10-oxo-9b,10-dihydro-4bH-indeno[1,2-b]benzofuran-9b-yl)-3-chloro-6-fluorobenzo[b]thiophene-2-carboxamide] | 0.018 µg/mL (≈ 0.0344 µM) | 0.035 µg/mL (≈ 0.0669 µM) | 0.036 µg/mL (≈ 0.0688 µM) | – | –
Cc1ccc2c(Cl)c(C(=O)NC34C(=O)c5c(N)cccc5C3(O)Oc3cc(C(C)C)ccc34)sc2c1 (centres unmarked) [Example 270, N-(1-Amino-4b-hydroxy-7-isopropyl-10-oxo-9b,10-dihydro-4bH-indeno[1,2-b]benzofuran-9b-yl)-3-chloro-6-methylbenzo[b]thiophene-2-carboxamide] | 0.03 µg/mL (≈ 0.0578 µM) | 0.036 µg/mL (≈ 0.0694 µM) | 0.039 µg/mL (≈ 0.0751 µM) | – | –
Cc1nn(C)c2ncc(C(=O)NC34C(=O)c5c(N)cccc5C3(O)Oc3cc(C(C)C)ccc34)cc12 (centres unmarked) [Example 271, N-(1-Amino-4b-hydroxy-7-isopropyl-10-oxo-9b,10-dihydro-4bH-indeno[1,2-b]benzofuran-9b-yl)-1,3-dimethyl-1H-pyrazolo[3,4-b]pyridine-5-carboxamide] | < 0.01 µg/mL | < 0.01 µg/mL | < 0.01 µg/mL | < 1 µg/mL | < 1 µg/mL
CC(C)c1ccc2c(c1)OC1(O)c3cccc(N)c3C(=O)C21NC(=O)c1ccc2nccn2c1 (centres unmarked) [Example 272, N-(1-Amino-4b-hydroxy-7-isopropyl-10-oxo-9b,10-dihydro-4bH-indeno[1,2-b]benzofuran-9b-yl)imidazo[1,2-a]pyridine-6-carboxamide] | < 0.01 µg/mL | < 0.01 µg/mL | < 0.01 µg/mL | < 1 µg/mL | < 1 µg/mL
CC(C)c1ccc2c(c1)OC1(O)c3cccc(N)c3C(=O)C21NC(=O)c1cc2ncccn2n1 (centres unmarked) [Example 273, N-(1-Amino-4b-hydroxy-7-isopropyl-10-oxo-9b,10-dihydro-4bH-indeno[1,2-b]benzofuran-9b-yl)pyrazolo[1,5-a]pyrimidine-2-carboxamide] | < 0.01 µg/mL | < 0.01 µg/mL | < 0.01 µg/mL | < 1 µg/mL | < 1 µg/mL
Cc1c(C(=O)NC23C(=O)c4c(N)cccc4C2(O)Oc2cc(C(C)C)ccc23)sc2ccccc12 (centres unmarked) [Example 274, N-(1-Amino-4b-hydroxy-7-isopropyl-10-oxo-9b,10-dihydro-4bH-indeno[1,2-b]benzofuran-9b-yl)-3-methylbenzo[b]thiophene-2-carboxamide] | < 0.01 µg/mL | 0.027 µg/mL (≈ 0.0557 µM) | < 0.01 µg/mL | < 1 µg/mL | –
CC(C)c1ccc2c(c1)OC1(O)c3cccc(N)c3C(=O)C21NC(=O)c1cnc2ccccc2n1 (centres unmarked) [Example 275, N-(1-Amino-4b-hydroxy-7-isopropyl-10-oxo-9b,10-dihydro-4bH-indeno[1,2-b]benzofuran-9b-yl)quinoxaline-2-carboxamide] | < 0.01 µg/mL | < 0.01 µg/mL | < 0.01 µg/mL | – | –
CC(C)c1ccc2c(c1)OC1(O)c3cccc(N)c3C(=O)C21NC(=O)c1ccnnc1 (centres unmarked) [Example 276, N-(1-Amino-4b-hydroxy-7-isopropyl-10-oxo-9b,10-dihydro-4bH-indeno[1,2-b]benzofuran-9b-yl)pyridazine-4-carboxamide] | < 0.01 µg/mL | < 0.01 µg/mL | < 0.01 µg/mL | < 1 µg/mL | < 1 µg/mL
CC(C)c1ccc2c(c1)OC1(O)c3cccc(N)c3C(=O)C21NC(=O)c1ccc2nccnc2c1 (centres unmarked) [Example 277, N-(1-Amino-4b-hydroxy-7-isopropyl-10-oxo-9b,10-dihydro-4bH-indeno[1,2-b]benzofuran-9b-yl)quinoxaline-6-carboxamide] | < 0.01 µg/mL | < 0.01 µg/mL | 0.026 µg/mL (≈ 0.0557 µM) | – | –
CC(C)c1ccc2c(c1)OC1(O)c3cccc(N)c3C(=O)C21NC(=O)c1ccc2nnnn2c1 (centres unmarked) [Example 278, N-(1-Amino-4b-hydroxy-7-isopropyl-10-oxo-9b,10-dihydro-4bH-indeno[1,2-b]benzofuran-9b-yl)tetrazolo[1,5-a]pyridine-6-carboxamide] | < 0.01 µg/mL | < 0.01 µg/mL | < 0.01 µg/mL | < 1 µg/mL | < 1 µg/mL
CC(C)c1ccc2c(c1)OC1(O)c3cccc(N)c3C(=O)C21NC(=O)c1cccn2nnnc12 (centres unmarked) [Example 279, N-(1-Amino-4b-hydroxy-7-isopropyl-10-oxo-9b,10-dihydro-4bH-indeno[1,2-b]benzofuran-9b-yl)tetrazolo[1,5-a]pyridine-8-carboxamide] | < 0.01 µg/mL | < 0.01 µg/mL | < 0.01 µg/mL | < 1 µg/mL | < 1 µg/mL
Cc1ccn2cc(C(=O)NC34C(=O)c5c(N)cccc5C3(O)Oc3cc(C(C)C)ccc34)nc2c1 (centres unmarked) [Example 280, N-(1-Amino-4b-hydroxy-7-isopropyl-10-oxo-9b,10-dihydro-4bH-indeno[1,2-b]benzofuran-9b-yl)-7-methylimidazo[1,2-a]pyridine-2-carboxamide] | < 0.01 µg/mL | < 0.01 µg/mL | < 0.01 µg/mL | – | –
Cc1ccnc2nc(C(=O)NC34C(=O)c5c(N)cccc5C3(O)Oc3cc(C(C)C)ccc34)nn12 (centres unmarked) [Example 281, N-(1-Amino-4b-hydroxy-7-isopropyl-10-oxo-9b,10-dihydro-4bH-indeno[1,2-b]benzofuran-9b-yl)-7-methyl-[1,2,4]triazolo[1,5-a]pyrimidine-2-carboxamide] | < 0.01 µg/mL | < 0.01 µg/mL | < 0.01 µg/mL | – | –
Cc1cc(C)n2ncc(C(=O)NC34C(=O)c5c(N)cccc5C3(O)Oc3cc(C(C)C)ccc34)c2n1 (centres unmarked) [Example 282, N-(1-Amino-4b-hydroxy-7-isopropyl-10-oxo-9b,10-dihydro-4bH-indeno[1,2-b]benzofuran-9b-yl)-5,7-dimethylpyrazolo[1,5-a]pyrimidine-3-carboxamide] | < 0.01 µg/mL | 0.011 µg/mL (≈ 0.0227 µM) | 0.011 µg/mL (≈ 0.0227 µM) | – | –
CC(C)c1ccc2c(c1)OC1(O)c3cccc(N)c3C(=O)C21NC(=O)c1cc(C(C)C)nc2c1cnn2C(C)C (centres unmarked) [Example 284, N-(1-Amino-4b-hydroxy-7-isopropyl-10-oxo-9b,10-dihydro-4bH-indeno[1,2-b]benzofuran-9b-yl)-1,6-diisopropyl-1H-pyrazolo[3,4-b]pyridine-4-carboxamide] | < 0.01 µg/mL | 0.016 µg/mL (≈ 0.0296 µM) | 0.028 µg/mL (≈ 0.0519 µM) | – | –
CC(C)c1ccc2c(c1)OC1(O)c3cccc(N)c3C(=O)C21NC(=O)c1cn2cccnc2n1 (centres unmarked) [Example 285, N-(1-Amino-4b-hydroxy-7-isopropyl-10-oxo-9b,10-dihydro-4bH-indeno[1,2-b]benzofuran-9b-yl)imidazo[1,2-a]pyrimidine-2-carboxamide] | < 0.01 µg/mL | < 0.01 µg/mL | < 0.01 µg/mL | – | < 1 µg/mL
CC(C)c1ccc2c(c1)OC1(O)c3cccc(N)c3C(=O)C21NC(=O)c1cc2ccccc2c(=O)[nH]1 (centres unmarked) [Example 286, N-(1-Amino-4b-hydroxy-7-isopropyl-10-oxo-9b,10-dihydro-4bH-indeno[1,2-b]benzofuran-9b-yl)-1-oxo-1,2-dihydroisoquinoline-3-carboxamide] | < 0.01 µg/mL | < 0.01 µg/mL | < 0.01 µg/mL | < 1 µg/mL | < 1 µg/mL

≈ marks a conversion by molar mass, not a printed value. Where two headings read alike, the source gives them in different places.
